Source: the antibiotic and cytotoxicity screens of Wong et al. (2023)
Some of the results follow.

Assays:
[1] = tested on: HSkMC (human skeletal muscle cells); assay: cytotoxicity call (relative viability < 0.9); conditions: 10 µM
[2] = tested on: S. aureus RN4220; assay: growth inhibition call (relative growth <= 0.2); conditions: 50 µM

Structure (SMILES) | cytotoxicity call [1] | growth inhibition call [2]
C[C@@H]1CN([C@@H](C)CO)C(=O)c2cccc(NS(=O)(=O)c3ccccc3)c2O[C@H]1CN(C)S(=O)(=O)c1cn(C)cn1 | inactive | inactive
C[C@H](CO)N1C[C@H](C)[C@@H](CN(C)S(=O)(=O)c2ccc(F)cc2)Oc2cc(C#Cc3ccc(F)cc3)ccc2S1(=O)=O | inactive | inactive
Cc1noc(C)c1NC(=O)Nc1ccc2c(c1)C(=O)N([C@@H](C)CO)C[C@@H](C)[C@@H](CN(C)C(=O)Nc1ccc(C(F)(F)F)cc1)OCCCC[C@@H](C)O2 | inactive | inactive
C[C@H](CO)N1C[C@H](C)[C@H](CN(C)Cc2ccc(Cl)c(Cl)c2)Oc2ccc(NC(=O)Nc3ccc(C(F)(F)F)cc3)cc2CC1=O | active | inactive
C[C@H](CO)N1C[C@H](C)[C@@H](CN(C)S(=O)(=O)c2cn(C)cn2)OCCCC[C@H](C)Oc2ccc(NC(=O)CCCN(C)C)cc2C1=O | inactive | inactive
O=C(O)c1ccc(N[C@@H]2O[C@H](CO)[C@@H](O)[C@@H]2O)cc1 | inactive | inactive
C[C@@H]1CN([C@@H](C)CO)C(=O)Cc2cc(NC(=O)C3CCCCC3)ccc2O[C@H]1CN(C)Cc1ccc(-c2ccccc2)cc1 | inactive | inactive
C[C@@H]1CN([C@H](C)CO)C(=O)c2cccc(NS(=O)(=O)c3ccc(F)cc3)c2O[C@@H]1CN(C)Cc1ccc(Cl)c(Cl)c1 | inactive | inactive
CC(C)C[C@@H]1NC(=O)[C@@H]2C[C@H](C(=O)NCCCCCNC(=O)CS)[C@H](c3cccc(OCCO)c3)N2C1=O | inactive | inactive
C[C@@H](N)c1cnn(-c2ccccc2F)c1 | inactive | inactive
CC(C)NC(=O)N(C)C[C@@H]1Oc2cc(C#Cc3ccccn3)ccc2S(=O)(=O)N([C@@H](C)CO)C[C@H]1C | inactive | inactive
COc1ccc(S(=O)(=O)N(C)C[C@H]2OCCCC[C@H](C)Oc3ccc(NC(=O)C4CCCCC4)cc3C(=O)N([C@@H](C)CO)C[C@@H]2C)cc1 | inactive | inactive
C[C@@H]1CN([C@@H](C)CO)S(=O)(=O)c2ccc(-c3ccncc3)cc2O[C@@H]1CN(C)C(=O)c1cccc(F)c1 | inactive | inactive
C[C@H](C(=O)N(C)C[C@@H]1OCc2ccccc2-c2c(n(C)c3ccccc23)C(=O)N([C@@H](C)CO)C[C@@H]1C)c1ccccc1 | inactive | inactive
C[C@@H]1CCCCO[C@@H](CN(C)C(=O)Nc2cccc3ccccc23)[C@H](C)CN([C@@H](C)CO)C(=O)c2cc(NS(=O)(=O)c3ccc(Cl)cc3)ccc2O1 | inactive | inactive
O=C1O[C@@H](c2ccccc2)[C@@H](c2ccccc2)N2[C@@H](c3ccc(O)cc3)[C@]3(C(=O)Nc4ccccc43)[C@@H](C(=O)Nc3nc4ccccc4s3)[C@H]12 | inactive | inactive
C[C@@H]1CCCCO[C@@H](CN(C)Cc2ccncc2)[C@@H](C)CN([C@@H](C)CO)C(=O)c2cc(NC(=O)Nc3ccc(C(F)(F)F)cc3)ccc2O1 | inactive | inactive
C[C@H]1CC/C=C\[C@H]2O[C@@]34C=CCN(Cn5nnc6ccccc65)C(=O)[C@H]3N(CCCO)C(=O)[C@@H]4[C@@H]2C(=O)O1 | inactive | inactive
CCOC(=O)c1c(CN2CCN(Cc3ccccc3)CC2)n(-c2ccccc2)c2cc(Br)c(O)cc12 | inactive | inactive
C[C@@H]1CCCCO[C@@H](CN(C)C(=O)C2CCCCC2)[C@H](C)CN([C@H](C)CO)C(=O)c2cc(NC(=O)Nc3cccc4ccccc34)ccc2O1 | inactive | inactive
Cc1ccc(S(=O)(=O)Nc2ccc3c(c2)C(=O)N([C@H](C)CO)C[C@H](C)[C@H](CN(C)C(=O)CCC(F)(F)F)OCCCC[C@H](C)O3)cc1 | inactive | inactive
